Results on four molecules are retold here after the supplement of paper PMC11741623.

B1: SORD, Q00796 (protein)
chain: MAAAAKPNNLSLVVHGPGDLRLENYPIPEPGPNEVLLRMHSVGICGSDVHYWEYGRIGNFIVKKPMVLGHEASGTVEKVGSSVKHLKPGDRVAIEPGAPRENDEFCKMGRYNLSPSIFFCATPPDDGNLCRFYKHNAAFCYKLPDNVTFEEGALIEPLSVGIHACRRGGVTLGHKVLVCGAGPIGMVTLLVAKAMGAAQVVVTDLSATRLSKAKEIGADLVLQISKESPQEIARKVEGQLGCKPEVTIECTGAEASIQAGIYATRSGGNLVLVGLGSEMTTVPLLHAAIREVDIKGVFRYCNTWPVAISMLASKSVNVKPLVTHRFPLEKALEAFETFKKGLGLKIMLKCDPSDQNP
B2: CCDC43, Q96MW1 (protein)
chain: MAAPSEVAAIAPGEGDGGGGGFGSWLDGRLEALGVDRAVYGAYILGILQEEEEEEKLDALQGILSAFLEEDSLLNICKEIVERWSETQNVVTKVKKEDEVQAIATLIEKQAQIVVKPRMVSEEEKQRKAALLAQYADVTDEEDEADEKDDSGATTMNIGSDKLLFRNTNVEDVLNARKLERDSLRDESQRKKEQDKLQRERDKLAKQERKEKEKKRTQRGERKR
B3: CDCA7L, Q96GN5 (protein)
chain: MELATRYQIPKEVADIFNAPSDDEEFVGFRDDVPMETLSSEESCDSFDSLESGKQQDVRFHSKYFTEELRRIFIEDTDSETEDFAGFTQSDLNGKTNPEVMVVESDLSDDGKASLVSEEEEDEEEDKATPRRSRSRRSSIGLRVAFQFPTKKLANKPDKNSSSEQLFSSARLQNEKKTILERKKDCRQVIQREDSTSESEDDSRDESQESSDALLKRTMNIKENKAMLAQLLAELNSMPDFFPVRTPTSASRKKTVRRAFSEGQITRRMNPTRSARPPEKFALENFTVSAAKFAEEFYSFRRRKTIGGKCREYRRRHRISSFRPVEDITEEDLENVAITVRDKIYDKVLGNTCHQCRQKTIDTKTVCRNQGCCGVRGQFCGPCLRNRYGEDVRSALLDPDWVCPPCRGICNCSYCRKRDGRCATGILIHLAKFYGYDNVKEYLESLQKELVEDN
B4: BFAR, Q9NZS9 (protein)
chain: MEEPQKSYVNTMDLERDEPLKSTGPQISVSEFSCHCCYDILVNPTTLNCGHSFCRHCLALWWASSKKTECPECREKWEGFPKVSILLRDAIEKLFPDAIRLRFEDIQQNNDIVQSLAAFQKYGNDQIPLAPNTGRANQQMGGGFFSGVLTALTGVAVVLLVYHWSSRESEHDLLVHKAVAKWTAEEVVLWLEQLGPWASLYRERFLSERVNGRLLLTLTEEEFSKTPYTIENSSHRRAILMELERVKALGVKPPQNLWEYKAVNPGRSLFLLYALKSSPRLSLLYLYLFDYTDTFLPFIHTICPLQEDSSGEDIVTKLLDLKEPTWKQWREFLVKYSFLPYQLIAEFAWDWLEVHYWTSRFLIINAMLLSVLELFSFWRIWSRSELKTVPQRMWSHFWKVSTQGLFVAMFWPLIPQFVCNCLFYWALYFNPIINIDLVVKELRRLETQVL

Some of the results follow. Interaction screen of human proteins with wild-type SARS-CoV-2 proteins by split-DHFR complementation in yeast, 1 µg/mL methotrexate. Value = fitness of the pair (three or more lineages) minus that of the viral protein without a human partner, on a scale set by negative (0) and fused positive (1) controls, mean of up to three cultures; higher = more likely to interact. Active = false discovery rate below 0.05 (one-sided t-test) in at least one culture. Nearly all pairs are not hits, and differences among them are mostly noise (correlation between cultures about 0.3); most hits were seen in one culture only. Human sequences are the Swiss-Prot entries looked up by gene name; the clone may be another isoform. NSP2 values were corrected by the authors for a growth advantage. Listed are human proteins with a hit and a random twelfth of the others.

The target in the first assay is SARS-CoV-2 E. In words: yeast fitness gain over the viral ORF with no human partner (scaled fitness); higher = more likely to interact. How it is done:
(§1)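 Split mouse DHFR complementation in pooled diploid yeast: human ORFeome clones carry one fragment and viral ORFs the other; barcoded lineages compete in 1 µg/mL methotrexate and fitness is read by barcode sequencing in up to three cultures.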
As for B1, the yeast fitness gain is inactive: 0.197.

Consider B2, for which the yeast fitness gain is inactive: 0.0127.

As to B3, the yeast fitness gain was inactive: 0.00307.

As to B4, the yeast fitness gain is inactive: -0.00203.

For a further assay, the target named is SARS-CoV-2 M. The description is as above. The method, then: as §1
As for B1, the yeast fitness gain was inactive: -0.0407.

B2: the yeast fitness gain is inactive: 0.052.

Turning to B3, the yeast fitness gain was inactive: 0.0876.

B4: the yeast fitness gain was inactive: 0.257.

Another assay deals with SARS-CoV-2 NSP1. The assay is described as above. The method, then:
as §1
For the molecule B1, the yeast fitness gain was inactive: 0.0166.

B2: the yeast fitness gain was inactive: -0.00633.

For the molecule B3, the yeast fitness gain was inactive: -0.0161.

Another assay concerns the target SARS-CoV-2 NSP10. The assay is described as above. How it is done:
as §1
Consider B1, for which the yeast fitness gain was inactive: -0.0477.

For B2, the yeast fitness gain was inactive: 0.0461.

For B3, the yeast fitness gain is inactive: -0.0261.

With B4, the yeast fitness gain was inactive: -0.0128.

Another assay addresses SARS-CoV-2 NSP12. The assay is described as above. How it is done:
as §1
For B1, the yeast fitness gain was inactive: 0.0711.

B2: the yeast fitness gain is inactive: 0.0464.

For the molecule B3, the yeast fitness gain was inactive: 0.00417.

As for B4, the yeast fitness gain was inactive: -0.144.

The target in the next assay is SARS-CoV-2 NSP13. The assay is described as above. How it is done: as §1
On to B1, for which the yeast fitness gain was inactive: 0.0376.

As to B2, the yeast fitness gain is inactive: 0.0354.

Turning to B3, the yeast fitness gain was inactive: -0.342.

On to B4, for which the yeast fitness gain was inactive: 0.0276.

The next assay deals with SARS-CoV-2 NSP16. Described as above. The method, then: as §1
As for B1, the yeast fitness gain is inactive: -0.12.

For B2, the yeast fitness gain is inactive: 0.091.

In the case of B4, the yeast fitness gain is inactive: -0.0451.

A further assay deals with SARS-CoV-2 NSP2. The assay is described as above. How it is done: as §1
For the molecule B1, the yeast fitness gain was inactive: -0.132.

Take B2: the yeast fitness gain is inactive: -0.00409.

With B3, the yeast fitness gain is inactive: -0.335.

On to B4, for which the yeast fitness gain was inactive: -0.19.

The next assay has as its target SARS-CoV-2 NSP5. The assay is described as above. How it is done:
as §1
In the case of B1, the yeast fitness gain was inactive: 0.015.

For B2, the yeast fitness gain was inactive: -0.107.

B3: the yeast fitness gain was inactive: -0.213.

For B4, the yeast fitness gain was inactive: -0.125.

In a further assay the target is SARS-CoV-2 NSP6. The description is as above. The method, then: as §1
With B1, the yeast fitness gain is inactive: 0.0894.

Take B2: the yeast fitness gain is inactive: -0.323.

For B3, the yeast fitness gain was inactive: -0.0182.

On to B4, for which the yeast fitness gain was inactive: -0.252.

The next assay concerns the target SARS-CoV-2 NSP7. The description is as above. The method, then:
as §1
Take B1: the yeast fitness gain was inactive: 0.0819.

Consider B2, for which the yeast fitness gain was inactive: 0.0927.

On to B4, for which the yeast fitness gain is inactive: -0.0503.

Another assay concerns the target SARS-CoV-2 NSP8. Described as above. The method, then:
as §1
For the molecule B1, the yeast fitness gain was inactive: 0.0463.

As to B2, the yeast fitness gain was inactive: -0.0517.

Consider B3, for which the yeast fitness gain is inactive: 0.0387.

Take B4: the yeast fitness gain is inactive: 0.0481.

A further assay concerns the target SARS-CoV-2 NSP9. The assay is described as above. How it is done: as §1
With B1, the yeast fitness gain was inactive: 0.056.

As for B2, the yeast fitness gain was inactive: 0.0187.

Turning to B3, the yeast fitness gain was inactive: -0.0365.

Another assay concerns the target SARS-CoV-2 ORF10. Described as above. How it is done:
as §1
In the case of B1, the yeast fitness gain was inactive: -0.0872.

In the case of B2, the yeast fitness gain is inactive: -0.0827.

As to B3, the yeast fitness gain is inactive: 0.0494.

In the case of B4, the yeast fitness gain was inactive: 0.0631.

For another assay, the target named is SARS-CoV-2 ORF3A. The description is as above. How it is done: as §1
Take B1: the yeast fitness gain is inactive: 0.0607.

On to B2, for which the yeast fitness gain is inactive: -0.00515.

Take B4: the yeast fitness gain is inactive: -0.0371.

The next assay has as its target SARS-CoV-2 ORF3B. The assay is described as above. The method, then: as §1
As to B1, the yeast fitness gain is inactive: -0.0404.

Regarding B2, the yeast fitness gain was inactive: 0.0465.

Consider B3, for which the yeast fitness gain is inactive: -0.00485.

For the molecule B4, the yeast fitness gain is inactive: 0.0319.

The target of the next assay is SARS-CoV-2 ORF6. Described as above. The method, then: as §1
Consider B1, for which the yeast fitness gain was inactive: -0.0219.

For B2, the yeast fitness gain was inactive: 0.0389.

In the case of B3, the yeast fitness gain is inactive: -0.0527.

As to B4, the yeast fitness gain was inactive: 0.0698.

In another assay the target is SARS-CoV-2 ORF7A. The description is as above. The method, then: as §1
As for B1, the yeast fitness gain was inactive: -0.159.

In the case of B2, the yeast fitness gain was inactive: 0.0516.

In the case of B3, the yeast fitness gain was inactive: 0.0442.

Turning to B4, the yeast fitness gain was inactive: -0.086.

Another assay has as its target SARS-CoV-2 ORF7B. Described as above. How it is done:
as §1
On to B1, for which the yeast fitness gain is inactive: 0.00134.

As to B2, the yeast fitness gain is inactive: -0.085.

On to B3, for which the yeast fitness gain is inactive: 0.12.

B4: the yeast fitness gain is inactive: 0.00889.

A further assay deals with SARS-CoV-2 ORF8. The assay is described as above. How it is done: as §1
Consider B1, for which the yeast fitness gain is inactive: 0.0228.

Turning to B2, the yeast fitness gain is inactive: -0.0235.

B3: the yeast fitness gain is inactive: 0.00403.

Consider B4, for which the yeast fitness gain is inactive: 0.0269.

The next assay has as its target SARS-CoV-2 ORF9B. The description is as above. How it is done: as §1
Consider B1, for which the yeast fitness gain is inactive: -0.011.

B2: the yeast fitness gain is inactive: 0.0433.

B3: the yeast fitness gain is inactive: 0.0263.

B4: the yeast fitness gain is inactive: -0.176.

For the next assay, the target named is SARS-CoV-2 ORF9Bwu (the 73-codon ORF). The assay is described as above. How it is done: as §1
In the case of B1, the yeast fitness gain was inactive: 0.0235.

As for B2, the yeast fitness gain was inactive: -0.0354.

Turning to B4, the yeast fitness gain is inactive: -0.017.

For the next assay, the target named is SARS-CoV-2 S. The description is as above. The method, then: as §1
In the case of B1, the yeast fitness gain is inactive: 0.0218.

As for B2, the yeast fitness gain is inactive: -0.032.

For the molecule B3, the yeast fitness gain was inactive: 0.0975.

In the case of B4, the yeast fitness gain was inactive: 0.0352.

Another assay has as its target SARS-CoV-2 NSP14. The assay is described as above. The method, then: as §1
Take B2: the yeast fitness gain was inactive: -0.0155.

The next assay deals with SARS-CoV-2 NSP15. Described as above. How it is done:
as §1
Regarding B2, the yeast fitness gain is inactive: 0.109.

For B4, the yeast fitness gain is inactive: -0.0761.

Another assay concerns the target SARS-CoV-2 NSP4. The description is as above. The method, then:
as §1
With B2, the yeast fitness gain was inactive: 0.0325.

Take B4: the yeast fitness gain was inactive: -0.0985.
